# Data published in ChEMBL document CHEMBL4888484, “Replenishing the malaria drug discovery pipeline: Screening and hit evaluation of the MMV Hit Generation Library 1 (HGL1) against asexual blood stage Plasmodium falciparum ,using a nano luciferase reporter read-out” (2022).
# Among all 150,000 compounds or so, about 540 (0.36%) showed an effect of 50% or more. This is one part of the list.
# Tested on: Plasmodium falciparum
# Assay: Primary screen in NF54 nanoGlo assay, in single point, at 2uM, 72h; a lower Z score goes with more inhibition
# Assay type: functional, Erythrocyte
# Details: timepoint 72 hour
SMILES,% Inhibition,Z score
c1cc2c(cc1OC[C@H]1CCCNC1)CCC2,-2%,0.3
Cc1nc(NC(=O)CS(=O)(=O)C(C)C)ccc1Br,-3%,0.39
COCc1noc(CCNC(=O)[C@@H](c2ccc3c(c2)OCO3)N(C)C)n1,-5%,1
Nc1ccc(-c2noc([C@H]3CCO[C@@H]3c3cccnc3)n2)cc1,-4%,0.79
COc1ccnc(N2CCC[C@H]2c2cnn(C)c2)n1,6%,-0.61
O=C(Nc1scc(-c2ccccc2)c1C(=O)N1CCCCC1)c1ccccc1,0%,0.03
Cc1cc(C)n(C[C@H](C)NCCc2csc(-c3ncccn3)n2)n1,-8%,1.59
Cc1nn(C)cc1Nc1nnc(Cn2nc(C(F)(F)F)c(Cl)c2C)s1,-45%,5.31
CCCCn1nc(C)nc1-c1cccn1C1CC1,-19%,1.91
CNC(=O)CN1CCCN(Cc2ccccc2)c2ccccc21,1%,-0.2
Cc1ccc(N2CCN(C(=O)c3cc(C)n4nccc4n3)CC2)cc1,-5%,0.82
Cc1ccccc1S(=O)(=O)N1CCN(c2c(C)n(-c3ccccc3)c(=O)n(CC(C)C)c2=O)CC1,37%,-1.3
COc1cccc(NC(=O)[C@@H]2Cn3cccc3C(=O)N2C)c1,2%,-0.3
Cc1nc(-c2cccc(NC(=O)c3ncccn3)c2)cs1,-26%,4.83
Cc1cccc(C)c1Cn1cc2c(n1)[C@@H](N)CCC2,6%,-0.89
Cc1ccc2nc(C=Cc3c[nH]nc3C(C)(C)C)ccc2c1,-3%,0.4
CC[C@@H]1NC(=O)N(Cc2c(Cl)oc3ccccc23)C1=O,-1%,0.1
C#CCN(C(=O)[C@H](C)OC1CCCCCC1)c1nccs1,-10%,1.43
C=CCC1(CC=C)CCCCN1C(=O)Cc1ccncc1,-4%,0.41
CN1CCN(c2ncnc3c2ccc(=O)n3C2CC2)CC1,-8%,1.35
CCn1ccnc(N2CCN(S(C)(=O)=O)c3ccccc3C2)c1=O,-15%,2.8
Cc1ccccc1-n1c(=O)n(C2CCCCC2)c(=O)c2c1ncn2Cc1ccccc1,-1%,0.09

SMILES,% Inhibition,Z score
Cc1noc(C)c1CN(C)C(=O)C(=O)Nc1cccc2c1CCCC2,-4%,0.59
Cc1nn(-c2ccc(C(=O)N3CCN(c4ccccc4)CC3)cc2)c2c1C(=O)CCC2,-18%,1.63
Cc1nc(CCNC(=O)c2cnc(C(C)(C)C)nc2O)sc1Cl,-7%,1.05
Cc1c(CN(C)CCOCC(C)C)cnn1C,-2%,0.25
CN(CC(C)(C)O)c1ncc(Br)cn1,-13%,1.96
CC(CS(=O)(=O)c1ccccc1)NC1CCOc2ccccc21 (stereo unspecified),-3%,0.47
CC(C)c1nc2cc(N(C)C(=O)CCc3ccc(Cl)cc3)ccc2o1,-19%,1.76
CC1CN(C(CNCc2cccnc2)c2cccs2)CCO1 (stereo unspecified),1%,-0.08
CC(C)C(=O)N(Cc1ccc(-c2ccc(Cl)cc2)o1)[C@H]1CCS(=O)(=O)C1,1%,-0.15
C=CCN1CC[C@@H](N2CCC(C)CC2)CCC1=O,-5%,0.55
c1ccc2c(c1)OC[C@H](CN1CCc3[nH]ncc3C1)O2,4%,-0.52
CNS(=O)(=O)c1ccc(C#N)c(F)c1,-1%,0.13
N#CC1(NC(=O)[C@H]2CC[C@H](c3ccccc3)C2)CCN(Cc2ccccc2)CC1,-6%,1.01
CS(=O)(=O)N[C@H]1CC12CCN(C(=O)c1ccccc1)CC2,-7%,0.9
COCCn1cc(C(=O)NC2CCCCCCC2)c(=O)c(C(=O)N2CCC(C)CC2)c1,-2%,0.23
O=C(Cc1ccccc1)Nc1ccc(N2CCCN(Cc3ccc(Cl)cc3)CC2)nc1,-5%,0.75
N#Cc1ccc(C(=O)N[C@@H]2COCC[C@@H]2Oc2cccc(F)c2)cn1,-9%,0.95
O=C1N[C@H]2C[C@@H](C(=O)NC[C@H]3O[C@H](CCOc4ccccc41)CC[C@@H]3O)N(C1CCCC1)C2,-15%,1.99
OC[C@H]1CCCN1c1cc2c(nn1)CCC2,-30%,3.82
CCOc1ncccc1CNC(=O)CN1C(=O)COc2ccc(Cl)cc21,2%,-0.36
CNCc1cc(Br)ccc1OC,-7%,0.92
